Results taken from PubChem BioAssay AID624296 (National Center for Advancing Translational Sciences (NCATS), 2012).
About 9,900 (2.8%) of roughly 350,000 compounds were called active. Inconclusive means that the source gave no clear call. Such entries were picked first, then a sample of the others. Calls follow the shape of the dose curve; as a rule, active = well fitted activation curve with a large enough effect; inconclusive = small, poorly fitted or top-dose-only effect; inactive = no such curve, though single readings can be large or run the other way. No potency is given beside an inconclusive call; the fits are too rough.

test: A quantitative high throughput screen for small molecules that induce DNA re-replication in MCF 10a normal breast cells.; also: nearly all actives have a fitted effect of over 50% in size; as to activity, positive = re-replication: % of control where 0% means no effect; conditions: MCF 10A DNA re-replication, Hoechst nuclear intensity, 48 h; activity, positive = re-replication: at 46.1 µM (top of the series)
Potency is read from the fitted curve at half-maximal effect; tags tell the direction and shape of the fitted curve.

| SMILES | activity, positive = re-replication | Potency |
| --- | --- | --- |
| Cc1ccc(S(=O)(=O)N2CCN(C(=O)CCn3cncn3)CC2)cc1C | inconclusive: 76.1% [activator] | – |
| COc1cc2nc(SCC(=O)NCc3ccco3)n(Cc3ccc(Cl)cc3)c(=O)c2cc1OC | – | active: 14.6 µM |
| CC(C)(C)CC(=O)Nc1cccc2c1CCCC2 | – | inactive |
| Cc1ccc2c(CC(=O)Nc3ccc(F)c(S(=O)(=O)N4CCOCC4)c3)coc2c1 | – | inactive |
| O=C1CCCCC1(O)Cc1ccc2c(c1)OCO2 (centres undefined) | – | inactive |
| Cc1cc(S(=O)(=O)N2CCOCC2)ccc1OCC(=O)Nc1ccc(Br)cc1F | – | inactive |
| COc1ccc(NC(=O)c2cccs2)cc1C(=O)N1CCN(c2ccccc2)CC1 | – | inconclusive [activator, single point] |
| Cc1ccc(S(=O)(=O)N/N=C/c2ccccc2F)cc1[N+](=O)[O-] | – | inactive |
| COc1cc(/C=C/C(=O)c2ccc(Cl)s2)cc(OC)c1O | – | inconclusive [activator, single point] |
| CCc1ccc(-c2nc3ccc(Br)cc3c(C(=O)O)c2C)s1 | – | inactive |
| CCn1c(=O)cc(SCC(=O)Nc2ccc3c(c2)OCO3)c2ccccc21 | – | inactive |
| CCN=C1S/C(=C/c2ccc(-c3ccc(Cl)cc3C(=O)O)o2)C(=O)N1CC | – | active: 6.51 µM |
| CCCCN(S(=O)(=O)c1ccccc1)S(=O)(=O)c1ccccc1 | – | inconclusive [activator, single point] |
| OCCCNc1ncnc2sc3c(c12)CCN(Cc1ccccc1)C3 | – | inconclusive [activator, single point] |
| CCN(CC)S(=O)(=O)c1ccc(C(=O)Nc2nnc(NC(=S)Nc3ccccc3)s2)cc1 | – | inconclusive [activator, partial curve, poor fit] |
| O=C1CC(c2cccs2)c2cc3c(cc2N1)OCCO3 (centres undefined) | – | active: 18.4 µM |
| COP(=O)(OC)c1ccc(NCc2cc(O)ccc2O)cc1 | – | inconclusive [activator, single point] |
| Cc1ccc(Cn2c(SCC(=O)Nc3cc(C)on3)nc3ccccc3c2=O)cc1 | – | inconclusive [activator, partial curve, poor fit] |
| CC(C)c1onc(C(=O)N2CCN(C(c3ccccc3)c3ccccc3)CC2)c1[N+](=O)[O-] | – | inconclusive [activator, partial curve, poor fit] |
| O=S(=O)(Nc1ccc(Cl)cc1NS(=O)(=O)c1ccccc1)c1ccccc1 | – | inconclusive [activator, single point] |
| C=CCN1C(=O)N(/C=C/C)c2cccc3cccc1c23 | – | active: 20.6 µM |
| O=C(O)C(=O)/C(=C\c1cccc2ccccc12)c1ccc2ccccc2n1 | – | active: 15.8 µM |
| Cc1ccc(OCC(=O)N2CCN(c3nnc(-c4ccccc4)c4ccccc34)CC2)cc1 | – | inconclusive [activator, single point] |
| COc1ccc(C(=O)Nc2ccc(SC(F)F)cc2)cc1 | – | inactive |
| CC(C)c1nc2c(c(=O)c3ccccc3n2C)c(=O)n1-c1ccc(F)cc1 | – | inactive |

| SMILES | activity, positive = re-replication | Potency |
| --- | --- | --- |
| Cc1cc(=O)oc2cc(OCC(O)CN3CCc4ccccc4C3)ccc12 (centres undefined) | – | inconclusive [activator, partial curve, poor fit] |
| OCCC1CN(Cc2ccc3cc(Cl)ccc3n2)CCN1Cc1ccsc1 (centres undefined) | – | inactive |
| CC1(C)CC(=O)C2=C(C1)Nc1cc3c(cc1C2c1ccc(F)cc1)OCO3 (centres undefined) | – | inconclusive [activator, single point] |
| CCOc1cc(C(=S)N2CCOCC2)ccc1OC(=O)c1ccccc1 | – | inactive |
| CCCOc1ccc(C2C(C(=O)c3ccc(C)o3)=C(O)C(=O)N2CCCn2ccnc2)cc1 (centres undefined) | – | inconclusive [activator, single point] |
| COc1cc2[nH]c(=S)n(N(C(C)=O)C(C)=O)c(=O)c2cc1OC | – | inconclusive [activator, partial curve, poor fit] |
| Cc1ccc2nc(N3C(=O)C(O)=C(C(=O)c4ccco4)C3c3ccc(C)o3)sc2c1 (centres undefined) | – | active: 20.6 µM |
| CCN1CCc2c(sc(NC(=O)COc3ccccc3)c2C(=O)OC)C1 | – | inactive |
| CCOC(=O)/C(C#N)=C/C1=C(N2CCCC2)CC(C)(CC)OC1 (centres undefined) | – | inactive |
| Cc1ccc(/C=C/C2=NN(Cc3ccccc3Cl)C(=O)CC2)cc1 | – | inconclusive [activator, single point] |
| C=CCn1cnc2c(c1=O)c1nc3ccccc3nc1n2/N=C/c1ccccn1 | – | inactive |
| O=C(NCCOc1ccccc1F)c1cccc(S(=O)(=O)N2CCN(c3ccccc3)CC2)c1 | – | inactive |
| COc1ccc(NC(=O)C2CCCN(S(=O)(=O)c3ccc(Cl)cc3)C2)cc1OC (centres undefined) | – | inactive |
| Fc1cccc(Cl)c1Cn1nnc2c(NCc3ccccn3)ncnc21 | – | inactive |
| Cc1cccc(NC(=S)NC(NC(=O)OCc2ccccc2)C(Cl)(Cl)Cl)c1 (centres undefined) | – | inconclusive [activator, single point] |
| COc1ccc(CNc2ncc(-c3ccc(Cl)cc3)n2C)c(OC)c1OC | – | inconclusive [activator, partial curve, poor fit] |
| CCCc1cc(=O)[nH]c(SCC(=O)Nc2ccc(N3CCCCC3)cc2)n1 | – | inactive |
| CN1CCN(c2nc(-c3ccccc3O)nc3ccccc23)CC1 | – | inactive |
| CCOc1ccccc1Nc1nc(N)nc(CSc2nccc(C)n2)n1 | – | inconclusive [activator, single point] |
| Cc1[nH]c2ccccc2c1C(=O)CN1C(=O)C(=O)N(Cc2ccco2)C1=O | – | inactive |
| Cc1ccc(S(=O)(=O)Nc2ncnc3sc(C)c(C)c23)cc1 | – | inconclusive [activator, partial curve, poor fit] |
| Cc1ccc(NC(=O)c2ccc(NCCCN3CCC(C)CC3)c([N+](=O)[O-])c2)c(C)c1 | – | inactive |
| Cc1noc(/C=C/N(C)C)c1S(=O)(=O)N1CCC(C(=O)Nc2ccc(Cl)cc2)CC1 | – | inconclusive [activator, single point] |
| CCCNC(=O)c1cc(-c2ccc(Br)cc2)on1 | – | inactive |
| COc1ccc(C2N(c3ccc(C)cc3)CCN2c2ccc(C)cc2)cc1O | – | inconclusive [activator, single point] |

| SMILES | activity, positive = re-replication | Potency |
| --- | --- | --- |
| CC(C)COP(=O)(OCC(C)C)C(Nc1ccccc1)c1ccc(F)cc1 (centres undefined) | – | inconclusive [activator, single point] |
| O=C(NC1CCSC1=O)C1CCCCC1 (centres undefined) | – | inconclusive [activator, partial curve, poor fit] |
| Cc1ccc(C(=O)NCCc2nnc3ccc(SCC(=O)NCc4ccc(F)cc4)nn23)cc1 | – | inactive |
| C=CC[C@H](CC(=O)OC(C)(C)C)C(=O)OC[C@H]1CCCN1C(=O)[C@H](CC=C)CC(=O)N(CCO)Cc1ccccc1 | – | inactive |
| COc1ccc(C(=O)N/N=C/C(Br)=C/c2ccccc2)cc1 | – | inconclusive [activator, single point] |
| Cc1ccccc1NC(=O)c1ccc(CN2CCc3ccccc3C2)cc1 | – | inconclusive [activator, single point] |
| CC(C)(C)NC(=O)C(c1cccs1)N(CC1CCCO1)C(=O)c1ccc(-c2ccccc2)[nH]1 (centres undefined) | – | inconclusive [activator, single point] |
| O=C(Nc1cc(Oc2ccc(Cl)cc2)cc([N+](=O)[O-])c1)c1ccco1 | – | active: 16.4 µM |
| CC(C)c1ccc(/C=C(\c2nc3ccccc3[nH]2)S(=O)(=O)c2ccccc2)cc1 | – | active: 2.59 µM |
| Cc1cccc(NC(=S)Nc2cccc(C(F)(F)F)c2)n1 | – | inactive |
| CCCNC(=O)COC(=O)c1cc(-c2ccc(OC)cc2)nc2ccccc12 | – | inconclusive [activator, single point] |
| CN(C)c1ccc(C#Cc2ccc3cc(CCCO)oc(=O)c3c2)cc1 | – | inconclusive [activator, partial curve, poor fit] |
| CCC(C)NC(=O)c1cc2c(=O)[nH]c3ccc(C)cc3c2s1 (centres undefined) | – | inactive |
| O=C(NC1CCCC1)C(c1ccccn1)N(C(=O)c1csnn1)c1ccccc1F (centres undefined) | – | inconclusive [activator, single point] |
| COc1cc(-c2noc(C)c2C#Cc2ccccn2)cc(OC)c1OC | – | inconclusive [activator, full curve, poor fit] |
| CC(Oc1ccccc1F)C(=O)NNC(=O)Cc1ccc(S(=O)(=O)N2CCOCC2)s1 (centres undefined) | – | inactive |
| O=C(O)c1ccc(CSc2nc3ccccc3o2)cc1 | – | inconclusive [activator, partial curve, poor fit] |
| S=c1[nH]nc(CSCCOc2ccc(Cl)cc2Cl)o1 | – | inactive |
| CS(=O)(=O)N(CC(=O)NCCC1=CCCCC1)c1cccc([N+](=O)[O-])c1 | – | inactive |
| Cc1ccc(OCc2ccc(C(=O)NCc3cccnc3)cc2)cc1C | – | inactive |
| COc1ccc(C(=O)n2cc(C(=O)c3cc(C)ccc3O)cn2)cc1 | – | inconclusive [activator, partial curve, poor fit] |
| O=C(N/N=C/c1ccccn1)c1ccc(Cl)cc1 | – | inconclusive [activator, partial curve] |
| COc1ccc(NC(=O)/C(C#N)=C/c2ccc(-c3ccccc3C(=O)O)o2)cc1 | – | inactive |
| COc1ccccc1C(=O)Nc1ccc(-c2nnn(CC(=O)N3CCOCC3)n2)cc1 | – | inconclusive [activator, partial curve, poor fit] |
